PubChem BioAssay AID588591 (National Center for Advancing Translational Sciences (NCATS), 2011)
Out of some 390,000 compounds screened, about 4,700 (1.2%) were called active. The inconclusive results got no clear call from the source; some entries with a clear call stand among them for comparison. The call rests on the fitted dose curve; in most records, active means well fitted inhibition curve with a large enough effect; inconclusive means small, poorly fitted or top-dose-only effect, or another doubt; inactive means no such curve, though single readings can be large or run the other way. Potencies of inconclusive entries are doubtful fits and often do not repeat.
On the % scale 0 is the no-effect control and ±100 the full control effect; potency means the concentration at half of the fitted maximal effect; tags describe the fitted curve by direction and shape.

These molecules were tested against DNA polymerase eta (Homo sapiens) (UniProt Q9Y253) (assay: qHTS for Inhibitors of Polymerase Eta). Conditions: recombinant Pol eta, fluorescent DNA replication assay; series mostly up to 114 µM; activity change, negative = inhibition: at the top concentration.
UniProt Q9Y253, sequence (Q9Y253 whole entry, looked up): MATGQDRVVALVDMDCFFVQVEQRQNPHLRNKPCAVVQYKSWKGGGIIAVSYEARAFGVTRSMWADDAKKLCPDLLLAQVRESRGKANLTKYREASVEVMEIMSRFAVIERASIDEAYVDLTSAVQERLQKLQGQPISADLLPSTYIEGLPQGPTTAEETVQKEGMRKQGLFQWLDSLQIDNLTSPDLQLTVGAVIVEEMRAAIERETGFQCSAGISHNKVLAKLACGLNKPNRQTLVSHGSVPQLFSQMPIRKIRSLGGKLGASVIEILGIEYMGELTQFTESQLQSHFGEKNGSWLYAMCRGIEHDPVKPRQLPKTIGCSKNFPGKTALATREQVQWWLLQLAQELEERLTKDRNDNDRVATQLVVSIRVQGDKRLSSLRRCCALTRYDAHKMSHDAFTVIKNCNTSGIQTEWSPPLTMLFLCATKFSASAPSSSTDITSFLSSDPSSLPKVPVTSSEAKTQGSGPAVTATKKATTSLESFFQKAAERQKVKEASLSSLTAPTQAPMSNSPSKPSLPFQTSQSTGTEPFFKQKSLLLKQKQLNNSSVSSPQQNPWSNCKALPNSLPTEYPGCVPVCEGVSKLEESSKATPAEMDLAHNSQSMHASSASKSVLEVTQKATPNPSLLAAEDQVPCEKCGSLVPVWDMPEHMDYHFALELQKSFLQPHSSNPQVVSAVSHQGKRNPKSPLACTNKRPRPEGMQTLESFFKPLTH
Outline: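 Fluorescent replication assay: 50 nM final substrate added after a 15 min room-temperature compound preincubation with 10 nM enzyme. Signal taken at 0 min and again at 10 min.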
CCN1CCCC1CNC(=O)c1ccc2c(c1)NC(=O)/C(=C\c1ccc(OC)c(OC)c1)S2 (stereo not drawn) was tested, and the Potency was inconclusive: 79.4 µM [inhibitor, partial curve].
In the case of COc1cc(OC)c(NC(=O)Cn2cnc3c(nc4n3CCCCC4)c2=O)cc1Cl, the “activity change, negative = inhibition” value is reported as inactive: 2.73%.
Cc1nc2c(C)cccn2c(=O)c1NC(=O)c1ccco1 was tested, and the “activity change, negative = inhibition” value was inactive: -11.2%.
With CC(=O)Nc1ccc(SCC(=O)NC(=O)c2ccc(S(=O)(=O)N(C)C)cc2)cc1 the Potency was inconclusive: 39.8 µM [inhibitor, single point].
For CC(OC(=O)c1ccc(NC(=O)CC#N)cc1)C(=O)Nc1ccc2c(c1)OCCO2 (stereo not drawn), the Potency was inconclusive: 31.6 µM [inhibitor, partial curve, poor fit].
In the case of CN(C)S(=O)(=O)c1cccc(C(=O)N=C2N=C3C=CC(Cl)=CN3Cc3ccccc32)c1, the Potency is reported as inconclusive: 25.1 µM [inhibitor, partial curve, poor fit].
For Cc1ccc(S(=O)(=O)N/N=C\c2cc3c(cc2Br)OCO3)cc1, the “activity change, negative = inhibition” value was inactive: -3.04%.
With O=C(COc1ccccc1/C=C\c1nc(O)c([N+](=O)[O-])c(=O)[nH]1)Nc1ccccc1 the Potency was active: 28.2 µM.
With O=C1C=CC(=O)N1c1cccc(-c2ccccc2)c1 the Potency was inconclusive: 50.1 µM [inhibitor, partial curve].
In the case of C=CCN1C(=O)/C(=C2/Sc3ccccc3N2CCCS(=O)(=O)O)SC1=S, the Potency is reported as active: 3.16 µM.
For Cc1cc2nc(-c3ccc(SCC(=O)Nc4ccc(S(=O)(=O)NC5CC5)cc4)nc3)[nH]c2cc1C, the Potency was inconclusive: 15.8 µM [inhibitor, full curve, poor fit].
With COc1cc(-c2nnc(COC(=O)c3ccc([N+](=O)[O-])o3)o2)cc(OC)c1OC the Potency was active: 79.4 µM.
For COC(=O)c1cc(NC(=O)c2cccc(C(F)(F)F)c2)c(=O)oc1C/C=N/OCc1cccc(Cl)c1Cl, the Potency was inconclusive: 25.1 µM [inhibitor, full curve, poor fit].
For O=C(Nc1ccc(F)c(Cl)c1)NC1CC1, the Potency was inconclusive: 39.8 µM [inhibitor, single point].
With Cc1ccc(C(=O)Nc2ccc(S(=O)(=O)NCc3ccco3)cc2)cc1 the Potency was inconclusive: 89.1 µM [inhibitor, single point].
In the case of Cc1ccc(C(=O)N/C(=C/c2ccc(-c3ccc([N+](=O)[O-])cc3)o2)C(=O)NCCCN(C)C)cc1, the “activity change, negative = inhibition” value is reported as inactive: -24.4%.
In the case of COc1cc(Cl)c(C)cc1NC(=O)c1nn(C)c2c1CSc1ccccc1-2, the “activity change, negative = inhibition” value is reported as inactive: -16.8%.
In the case of O=C(CNC(=O)c1ccc(F)cc1)N/N=C/c1ccc(O)c([N+](=O)[O-])c1, the Potency is reported as inconclusive: 31.6 µM [inhibitor, single point].
O=C(/C=C/c1ccco1)N1CCN(S(=O)(=O)c2ccccc2)CC1 was tested, and the Potency was active: 17.8 µM.
For Cc1ccc2[nH]c(CSc3nnc(NC(=O)COc4ccc(F)cc4)s3)cc(=O)c2c1, the “activity change, negative = inhibition” value was inactive: 7.09%.
With Cc1ccc(C(=O)OCC(=O)NCc2cc(C)c(O)c(C)c2)cc1S(=O)(=O)N1CCCCC1 the Potency was inconclusive: 35.5 µM [inhibitor, full curve].
With CCOC(=O)c1c(C)oc2nc(C)nc(N3CCN(c4cccc(C(F)(F)F)c4)CC3)c12 the “activity change, negative = inhibition” value was inactive: -24.6%.
C[C@H]1CN([C@@H](C)CO)S(=O)(=O)c2ccc(Br)cc2O[C@@H]1CN(C)Cc1cccc(F)c1 was tested, and the Potency was inconclusive: 35.5 µM [inhibitor, partial curve, poor fit].
In the case of O=C(O)C1=CC(=C(c2ccc(O)c(C(=O)O)c2)c2ccc(O)c(C(=O)O)c2)C=CC1=O, the Potency is reported as active: 0.126 µM.
In the case of Cn1cccc1C(=O)Nc1ccc(Cl)c(S(=O)(=O)N2CCCCC2)c1, the “activity change, negative = inhibition” value is reported as inactive: -7.37%.
For O/C=c1\ccc2cccc3nc(C(F)(F)F)nc1c23, the Potency was active: 25.1 µM.
For O=C(Cn1ncc2c([nH]c3ccccc32)c1=O)NCc1cccc(Cl)c1, the “activity change, negative = inhibition” value was inactive: -5.86%.
For COc1ccc(NS(=O)(=O)c2cc([N+](=O)[O-])ccc2N/N=C/c2c(C)[nH]c3ccccc23)cc1, the “activity change, negative = inhibition” value was inactive: -18.5%.
In the case of Cc1c(C(=O)N2CCN(S(=O)(=O)c3cc(F)ccc3F)CC2)oc2ccccc12, the Potency is reported as inconclusive: 35.5 µM [inhibitor, partial curve, poor fit].
With C/C(=N\NC(=S)Nc1ccccc1C)c1cc2ccccc2o1 the “activity change, negative = inhibition” value was inactive: -28%.
COc1ccc(Cn2ccc3nc(C)c(C(=O)NCc4ccc(OC)cc4OC)cc3c2=O)cc1 was tested, and the “activity change, negative = inhibition” value was inactive: -15.8%.
For O=c1cc(-c2ccc(OCc3ccccc3)cc2)oc2cc(OCc3ccccc3)cc(OCc3ccccc3)c12, the Potency was inconclusive: 25.1 µM [inhibitor, full curve, poor fit].
In the case of COCCCn1c(CCC(=O)O)ccc1-c1cccs1, the Potency is reported as inconclusive: 31.6 µM [inhibitor, partial curve].
With CCc1ccc(C2CC(=O)NC(NC(=O)c3ccc(C(C)(C)C)cc3)=N2)cc1 (stereo not drawn) the “activity change, negative = inhibition” value was inactive: -0.52%.
With CCOc1ccc(/C=C/c2nc(C#N)c(Nc3ccc(OCC)cc3)o2)cc1 the “activity change, negative = inhibition” value was inactive: -17%.
For CC1CC(=O)N(CC(=O)Nc2ccc(F)cc2F)c2ccccc2S1 (stereo not drawn), the “activity change, negative = inhibition” value was inactive: -16%.
CCCCSC1=N/C(=C/c2ccsc2)C(=O)N1c1ccccc1 was tested, and the Potency was inconclusive: 3.98 µM [inhibitor, partial curve, poor fit].
In the case of CN(C)c1ccc(NC(=O)CN2CCN(CC(=O)Nc3ccc(Br)cc3)CC2)cc1, the “activity change, negative = inhibition” value is reported as inactive: -8.83%.
For COc1ccc(OCC(=O)OCC(=O)Nc2ccc3[nH]c(=O)[nH]c3c2)cc1, the Potency was inconclusive: 35.5 µM [inhibitor, partial curve, poor fit].
O=c1cc(-c2ccccc2)oc2ccccc12 was tested, and the “activity change, negative = inhibition” value was inactive: -6.11%.
O=C(O)CCc1ccc(-c2cccs2)n1Cc1ccco1 was tested, and the Potency was inconclusive: 79.4 µM [inhibitor, partial curve].
In the case of Cc1cc(N2CCN(C)CC2)ccc1NC(=O)c1c2c(nc3ccccc13)CCN(Cc1ccccc1)C2, the Potency is reported as inconclusive: 79.4 µM [inhibitor, single point].
In the case of CN(CC(=O)Nc1c(Cl)cccc1Cl)C(=O)c1cccc(-n2cccc2)c1, the Potency is reported as active: 20 µM.
For Nc1c(C(=O)NCc2ccccc2)sc2nc3c(cc12)C(=O)CCC3, the Potency was inconclusive: 28.2 µM [inhibitor, partial curve, poor fit].
For COc1ccc(-c2[nH]nc3c2C2(C(=O)N(CC(=O)O)c4ccccc42)C(C#N)=C(N)O3)cc1OC (stereo not drawn), the Potency was inconclusive: 22.4 µM [inhibitor, full curve, poor fit].
CCCc1nnc(NC(=O)Cc2coc3ccc(C)cc23)s1 was tested, and the “activity change, negative = inhibition” value was inactive: -3.4%.
With O=C(Cn1c(=O)n(CCc2ccccc2)c(=O)c2c3c(sc21)CCCC3)Nc1ccc(F)c(F)c1 the “activity change, negative = inhibition” value was inactive: -19.4%.
COc1ccc(-c2nnc(Nc3nc4c(OC)cccc4s3)o2)cc1 was tested, and the Potency was active: 79.4 µM.
COc1cc2c(cc1OC)CN(C(=O)CCCOc1ccc(Cl)cc1Cl)CC2 was tested, and the Potency was inconclusive: 79.4 µM [inhibitor, partial curve, poor fit].
CCn1c2ccccc2c2cc(/C=N/NC(=O)c3ccc(O)cc3)ccc21 was tested, and the Potency was inconclusive: 12.6 µM [inhibitor, full curve, poor fit].
With O=C(NCCc1nc2ccccc2[nH]1)/C(=C/c1ccc2c(c1)OCO2)NC(=O)c1ccccc1Cl the Potency was inconclusive: 79.4 µM [inhibitor, partial curve, poor fit].
In the case of CCCc1cc(N2CCOCC2)n2ncc(-c3ccccc3)c2n1, the Potency is reported as inconclusive: 89.1 µM [inhibitor, partial curve].
For COc1ccc(-n2c(C)cc(C(=O)CSc3nn4c(=O)c(C(C)(C)C)nnc4s3)c2C)cc1, the “activity change, negative = inhibition” value was inactive: -5.22%.
For COc1cc2c(cc1OC)/C(=C/C(=O)c1cccc([N+](=O)[O-])c1)NCC2, the Potency was inconclusive: 39.8 µM [inhibitor, partial curve, poor fit].
For Cc1ccc(NC(=O)CN2C(=O)c3ccccc3Sc3ccc(C(=O)N4CCCC4)cc32)cc1, the Potency was inconclusive: 89.1 µM [inhibitor, partial curve].
For Cc1ccc(/C=N/NC(=O)c2ccc(C(=O)N/N=C/c3ccc(C)s3)o2)s1, the Potency was inconclusive: 22.4 µM [inhibitor, single point].
For O=C(Cc1nnc(NC(=O)c2ccccc2)s1)N/N=C/c1ccc(O)cc1, the “activity change, negative = inhibition” value was inactive: -21.8%.
COc1ccc([C@H]2C[C@@H](n3cc(COC(=O)c4ccccc4)nn3)[C@H](O)CN2CC2CCCCC2)cc1 was tested, and the “activity change, negative = inhibition” value was inactive: -14.6%.
COc1ccc2nc(SCC(=O)N3CC(=O)Nc4ccccc43)c(C#N)cc2c1 was tested, and the Potency was inconclusive: 31.6 µM [inhibitor, partial curve].
For CC(=O)c1cccc(S(=O)(=O)N2CCCC(c3nc4c(nnn4Cc4cccc(Cl)c4)c(=O)[nH]3)C2)c1 (stereo not drawn), the Potency was inconclusive: 56.2 µM [inhibitor, partial curve].
In the case of COc1ccc2cc3cc(C(=O)Nc4cc(OC)c(OC)c(OC)c4)oc3nc2c1, the “activity change, negative = inhibition” value is reported as inactive: -12.9%.
In the case of O=C(NCCc1ccc(Cl)cc1)c1nc(-c2cccc(F)c2)n2c1CCCCC2, the “activity change, negative = inhibition” value is reported as inactive: -19.4%.
In the case of CC(C)NC(=O)NC(=O)COC(=O)c1c2c(nc3ccccc13)CCC2, the Potency is reported as inconclusive: 39.8 µM [inhibitor, partial curve, poor fit].
In the case of O=C(Nc1nnc(-c2ccccc2F)s1)C1CCCO1 (stereo not drawn), the Potency is reported as active: 14.1 µM.
COc1cccc(CC(=O)NCC2(N3CCCCC3)CCCCC2)c1 was tested, and the Potency was inconclusive: 89.1 µM [inhibitor, partial curve, poor fit].
Cc1[nH]n(C(N)=S)c(=O)c1N=Nc1cc(-c2ccc(Br)cc2)[nH]n1 was tested, and the Potency was inconclusive: 39.8 µM [inhibitor, partial curve, poor fit].
Cc1cc2n(n1)CCC(=O)N2Cc1ccc(C(=O)Nc2ccc(Br)c(C)c2)cc1 was tested, and the “activity change, negative = inhibition” value was inactive: -16.6%.
In the case of CCc1nnc(NC(=O)Cc2cccs2)s1, the Potency is reported as active: 35.5 µM.
